# Experimental data: the supplement of paper PMC8728848
# The list shows a part of the results.
# B1: BC2L-A (Burkholderia cenocepacia), Q1BKJ8_BURCA (protein)
# chain: ADSQTSSNRAGEFSIPPNTDFRAIFFANAAEQQHIKLFIGDSQEPAAYHKLTTRDGPREATLNSGNGKIRFEVSVNGKPSATDARLAPINGKKSDGSPFTVNFGIVVSEDGHDSDYNDGIVVLQWPIG
# Legend:
# Assay in all cases: glycan array binding signal (z-score within array); higher = stronger binding
# Settings in all cases: glycan notation: IUPAC condensed, linker removed
# Gal3S6S(b1-4)GlcNAc = molecular target: Gal3S6S(b1-4)GlcNAc
# Summary of the method: (§1)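 The Consortium for Functional Glycomics database supplied 3228 glycan arrays, of which those lacking an available protein sequence were dropped. The binding signal, a within-array Z-score, was averaged across arrays of the same protein sequence and across linkers. Negative scores can be read as non-binding.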
# Gal3S6S(b1-4)GlcNAc6S = molecular target: Gal3S6S(b1-4)GlcNAc6S
# Summary of the method: as §1
# Gal4S(b1-4)GlcNAc = molecular target: Gal4S(b1-4)GlcNAc
# Summary of the method: as §1
# Gal4S6S(b1-4)GlcNAc = molecular target: Gal4S6S(b1-4)GlcNAc
# Summary of the method: as §1
# Gal6S(b1-3)GlcNAc = molecular target: Gal6S(b1-3)GlcNAc
# Summary of the method: as §1
# Gal6S(b1-3)GlcNAc6S = molecular target: Gal6S(b1-3)GlcNAc6S
# Summary of the method: as §1
# Gal6S(b1-4)Glc = molecular target: Gal6S(b1-4)Glc
# Summary of the method: as §1
# Gal6S(b1-4)Glc6S = molecular target: Gal6S(b1-4)Glc6S
# Summary of the method: as §1
# Gal6S(b1-4)GlcNAc = molecular target: Gal6S(b1-4)GlcNAc
# Summary of the method: as §1
# Gal6S(b1-4)GlcNAc6S = molecular target: Gal6S(b1-4)GlcNAc6S
# Summary of the method: as §1
# GalNAc(a1-3)Gal = molecular target: GalNAc(a1-3)Gal
# Summary of the method: as §1
# GalNAc(a1-3)GalNAc = molecular target: GalNAc(a1-3)GalNAc
# Summary of the method: as §1
# [1] = molecular target: GalNAc(a1-3)GalNAc(b1-3)Gal(a1-4)Gal(b1-4)Glc
# Summary of the method: as §1
# [2] = molecular target: GalNAc(a1-3)GalNAc(b1-3)Gal(a1-4)Gal(b1-4)GlcNAc
# Summary of the method: as §1
# GalNAc(b1-3)Gal = molecular target: GalNAc(b1-3)Gal
# Summary of the method: as §1
# [3] = molecular target: GalNAc(b1-3)Gal(a1-4)Gal(b1-4)GlcNAc
# Summary of the method: as §1
# [4] = molecular target: GalNAc(b1-3)Gal(a1-4)Gal(b1-4)GlcNAc(b1-3)Gal(b1-4)Glc
# Summary of the method: as §1
# [5] = molecular target: GalNAc(b1-3)Gal(a1-6)Gal(b1-4)Glc
# Summary of the method: as §1
# GalNAc(b1-3)GalNAc = molecular target: GalNAc(b1-3)GalNAc
# Summary of the method: as §1
# GalNAc(b1-4)Gal(b1-4)Glc = molecular target: GalNAc(b1-4)Gal(b1-4)Glc
# Summary of the method: as §1
# GalNAc(b1-4)GlcNAc = molecular target: GalNAc(b1-4)GlcNAc
# Summary of the method: as §1
# [6] = molecular target: GalNAc(b1-4)GlcNAc(b1-2)Man(a1-3)[GalNAc(b1-4)GlcNAc(b1-2)Man(a1-6)]Man(b1-4)GlcNAc(b1-4)GlcNAc
# Summary of the method: as §1
# GalNAc(b1-6)GalNAc = molecular target: GalNAc(b1-6)GalNAc
# Summary of the method: as §1
# Glc(a1-4)Glc = molecular target: Glc(a1-4)Glc
# Summary of the method: as §1
# [7] = molecular target: Glc(a1-4)Glc(a1-4)Glc(a1-4)Glc
# Summary of the method: as §1
# Glc(a1-6)Glc(a1-6)Glc = molecular target: Glc(a1-6)Glc(a1-6)Glc
# Summary of the method: as §1
# [8] = molecular target: Glc(a1-6)Glc(a1-6)Glc(a1-6)Glc
# Summary of the method: as §1
# Glc(b1-4)Glc = molecular target: Glc(b1-4)Glc
# Summary of the method: as §1
# Glc(b1-6)Glc = molecular target: Glc(b1-6)Glc
# Summary of the method: as §1
# GlcA(b1-3)Gal = molecular target: GlcA(b1-3)Gal
# Summary of the method: as §1
# GlcA(b1-3)GlcNAc = molecular target: GlcA(b1-3)GlcNAc
# Summary of the method: as §1
# GlcA(b1-6)Gal = molecular target: GlcA(b1-6)Gal
# Summary of the method: as §1
# [9] = molecular target: GlcNAc(a1-3)Gal(b1-4)GlcNAc
# Summary of the method: as §1
# [10] = molecular target: GlcNAc(a1-4)Gal(b1-3)GlcNAc
# Summary of the method: as §1
# [11] = molecular target: GlcNAc(a1-4)Gal(b1-4)GalNAc
# Summary of the method: as §1
# [12] = molecular target: GlcNAc(a1-4)Gal(b1-4)GlcNAc
# Summary of the method: as §1
# [13] = molecular target: GlcNAc(a1-4)Gal(b1-4)GlcNAc(b1-3)Gal(b1-4)Glc
# Summary of the method: as §1
# [14] = molecular target: GlcNAc(a1-4)Gal(b1-4)GlcNAc(b1-3)Gal(b1-4)GlcNAc
# Summary of the method: as §1
# [15] = molecular target: GlcNAc(a1-4)Gal(b1-4)GlcNAc(b1-3)Gal(b1-4)GlcNAc(b1-3)Gal(b1-4)GlcNAc
# Summary of the method: as §1
# [16] = molecular target: GlcNAc(a1-4)Gal(b1-4)GlcNAc(b1-3)Gal(b1-4)[Fuc(a1-3)]GlcNAc(b1-3)Gal(b1-4)[Fuc(a1-3)]GlcNAc
# Summary of the method: as §1
# [17] = molecular target: GlcNAc(a1-6)Gal(b1-4)GlcNAc
# Summary of the method: as §1
# [18] = molecular target: GlcNAc(b1-2)Gal(b1-3)GalNAc
# Summary of the method: as §1
# [19] = molecular target: GlcNAc(b1-2)Man(a1-3)[GlcNAc(b1-2)Man(a1-6)]Man(b1-4)GlcNAc(b1-4)GlcNAc
# Summary of the method: as §1
# [20] = molecular target: GlcNAc(b1-2)Man(a1-3)[GlcNAc(b1-2)Man(a1-6)]Man(b1-4)GlcNAc(b1-4)[Fuc(a1-6)]GlcNAc
# Summary of the method: as §1
# [21] = molecular target: GlcNAc(b1-2)Man(a1-3)[GlcNAc(b1-4)][GlcNAc(b1-2)Man(a1-6)]Man(b1-4)GlcNAc(b1-4)GlcNAc
# Summary of the method: as §1
binder,measurement,setting,value
B1,glycan array binding signal (z-score),Gal3S6S(b1-4)GlcNAc,0.19
same,glycan array binding signal (z-score),Gal3S6S(b1-4)GlcNAc6S,0.198
same,glycan array binding signal (z-score),Gal4S(b1-4)GlcNAc,-0.276
same,glycan array binding signal (z-score),Gal4S6S(b1-4)GlcNAc,-0.292
same,glycan array binding signal (z-score),Gal6S(b1-3)GlcNAc,-0.218
same,glycan array binding signal (z-score),Gal6S(b1-3)GlcNAc6S,-0.215
same,glycan array binding signal (z-score),Gal6S(b1-4)Glc,-0.291
same,glycan array binding signal (z-score),Gal6S(b1-4)Glc6S,-0.287
same,glycan array binding signal (z-score),Gal6S(b1-4)GlcNAc,-0.291
same,glycan array binding signal (z-score),Gal6S(b1-4)GlcNAc6S,-0.3
same,glycan array binding signal (z-score),GalNAc(a1-3)Gal,-0.292
same,glycan array binding signal (z-score),GalNAc(a1-3)GalNAc,-0.156
same,glycan array binding signal (z-score),[1],-0.215
same,glycan array binding signal (z-score),[2],-0.219
same,glycan array binding signal (z-score),GalNAc(b1-3)Gal,-0.298
same,glycan array binding signal (z-score),[3],-0.275
same,glycan array binding signal (z-score),[4],-0.3
same,glycan array binding signal (z-score),[5],-0.219
same,glycan array binding signal (z-score),GalNAc(b1-3)GalNAc,-0.282
same,glycan array binding signal (z-score),GalNAc(b1-4)Gal(b1-4)Glc,-0.221
same,glycan array binding signal (z-score),GalNAc(b1-4)GlcNAc,-0.291
same,glycan array binding signal (z-score),[6],-0.291
same,glycan array binding signal (z-score),GalNAc(b1-6)GalNAc,-0.219
same,glycan array binding signal (z-score),Glc(a1-4)Glc,0.033
same,glycan array binding signal (z-score),[7],-0.221
same,glycan array binding signal (z-score),Glc(a1-6)Glc(a1-6)Glc,0.138
same,glycan array binding signal (z-score),[8],-0.221
same,glycan array binding signal (z-score),Glc(b1-4)Glc,-0.267
same,glycan array binding signal (z-score),Glc(b1-6)Glc,-0.2
same,glycan array binding signal (z-score),GlcA(b1-3)Gal,-0.15
same,glycan array binding signal (z-score),GlcA(b1-3)GlcNAc,-0.297
same,glycan array binding signal (z-score),GlcA(b1-6)Gal,-0.287
same,glycan array binding signal (z-score),[9],-0.197
same,glycan array binding signal (z-score),[10],-0.292
same,glycan array binding signal (z-score),[11],-0.296
same,glycan array binding signal (z-score),[12],-0.289
same,glycan array binding signal (z-score),[13],-0.295
same,glycan array binding signal (z-score),[14],-0.288
same,glycan array binding signal (z-score),[15],-0.283
same,glycan array binding signal (z-score),[16],-0.127
same,glycan array binding signal (z-score),[17],0.141
same,glycan array binding signal (z-score),[18],0.206
same,glycan array binding signal (z-score),[19],-0.229
same,glycan array binding signal (z-score),[20],-0.099
same,glycan array binding signal (z-score),[21],-0.19
